Results: PubChem BioAssay AID1347165 (National Center for Advancing Translational Sciences (NCATS), 2019)
The whole screen tested about 220,000 compounds, of which about 5,700 (2.6%) were called active. This list was built around the results that the source calls inconclusive (neither active nor inactive); the mix of calls is not that of the screen. Calls follow the shape of the dose curve; as a rule, active = well fitted inhibition curve with a large enough effect; inconclusive = small, poorly fitted or top-dose-only effect; inactive = no such curve, though single readings can be large or run the other way. Potencies beside an inconclusive call are fits to weak or partial responses and may not hold up.

Each molecule was assayed against Lysine-specific demethylase 5B (Homo sapiens) (UniProt Q9UGL1) (assay: Primary screen for KDM5B Histone Demethylases FDH-coupled qHTS). Conditions: FDH-coupled NADH fluorescence (FDH is formaldehyde dehydrogenase); activity change, negative = inhibition: at 57.7 µM (top of the series) unless noted.
Outline: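 Coupled FDH/NAD⁺ fluorescence readout. KDM5BΔAP 200 nM final; compound titration, 10 min RT preincubation; substrate mix 12.5 µM H3K4me3, 25 µM 2-OG, 50 µM Fe(II), 100 µM ascorbate, 0.25 mM NAD⁺, 0.25 U/mL FDH; ΔRFU over 30 min.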
Also: nearly all actives have a fitted effect of over 70% in size.
For activity change, negative = inhibition in this document: 0% is about no effect.
Potency is read from the fitted curve at half-maximal effect; tags tell the direction and shape of the fitted curve.

Sequence of UniProt Q9UGL1 (Q9UGL1 whole entry, looked up): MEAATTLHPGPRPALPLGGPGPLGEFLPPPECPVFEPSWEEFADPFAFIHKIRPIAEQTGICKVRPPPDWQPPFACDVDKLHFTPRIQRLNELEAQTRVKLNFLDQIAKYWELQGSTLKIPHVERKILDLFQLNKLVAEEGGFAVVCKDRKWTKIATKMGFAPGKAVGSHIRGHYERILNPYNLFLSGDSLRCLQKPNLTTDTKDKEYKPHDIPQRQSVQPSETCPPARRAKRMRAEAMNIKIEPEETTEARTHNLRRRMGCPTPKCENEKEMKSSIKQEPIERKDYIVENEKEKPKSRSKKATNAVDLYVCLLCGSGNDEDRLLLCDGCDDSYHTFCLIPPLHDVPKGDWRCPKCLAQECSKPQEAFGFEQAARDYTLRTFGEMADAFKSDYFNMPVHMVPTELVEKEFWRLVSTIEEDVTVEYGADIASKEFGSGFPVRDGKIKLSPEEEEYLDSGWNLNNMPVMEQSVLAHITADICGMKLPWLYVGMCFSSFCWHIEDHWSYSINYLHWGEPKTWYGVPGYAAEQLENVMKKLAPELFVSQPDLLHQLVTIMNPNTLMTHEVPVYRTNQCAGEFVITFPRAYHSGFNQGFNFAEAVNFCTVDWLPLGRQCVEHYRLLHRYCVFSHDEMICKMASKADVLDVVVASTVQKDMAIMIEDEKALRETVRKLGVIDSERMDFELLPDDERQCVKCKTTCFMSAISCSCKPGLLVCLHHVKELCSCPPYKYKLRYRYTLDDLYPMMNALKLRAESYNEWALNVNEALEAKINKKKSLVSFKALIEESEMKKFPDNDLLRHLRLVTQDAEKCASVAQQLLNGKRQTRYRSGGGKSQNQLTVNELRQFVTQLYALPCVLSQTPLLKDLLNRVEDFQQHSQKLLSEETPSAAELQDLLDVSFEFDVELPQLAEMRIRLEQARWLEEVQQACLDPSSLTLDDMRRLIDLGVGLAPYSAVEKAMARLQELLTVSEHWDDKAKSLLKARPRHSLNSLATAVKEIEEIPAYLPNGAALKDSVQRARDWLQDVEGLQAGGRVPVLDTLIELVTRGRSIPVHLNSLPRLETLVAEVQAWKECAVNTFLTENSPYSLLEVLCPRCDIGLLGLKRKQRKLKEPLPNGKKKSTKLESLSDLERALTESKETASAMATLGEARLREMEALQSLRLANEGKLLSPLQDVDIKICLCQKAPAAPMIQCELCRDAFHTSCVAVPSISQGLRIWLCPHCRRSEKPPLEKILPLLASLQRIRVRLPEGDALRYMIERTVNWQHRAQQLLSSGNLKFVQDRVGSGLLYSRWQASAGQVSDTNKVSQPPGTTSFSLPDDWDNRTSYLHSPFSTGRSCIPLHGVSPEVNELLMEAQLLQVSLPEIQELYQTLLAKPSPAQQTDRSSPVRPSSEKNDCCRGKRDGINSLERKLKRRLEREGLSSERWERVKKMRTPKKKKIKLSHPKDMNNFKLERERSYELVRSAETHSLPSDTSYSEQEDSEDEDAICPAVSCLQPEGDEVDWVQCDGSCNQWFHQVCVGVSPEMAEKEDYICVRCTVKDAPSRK

SMILES	activity change, negative = inhibition	Potency
O=C(O)C1(c2ccc(Cl)cc2)CCOCC1	inactive: 4.98%	–
CCC(C)Cc1c(C)sc2nc(CNc3ccc4c(c3)OCO4)[nH]c(=O)c12 (stereo not given)	inactive: 1.74%	–
CCCN1C(=O)C(Cc2nc3ccccc3c(=O)n2-c2cccc(C)c2)c2ccccc21 (stereo not given)	–	inconclusive: 39.8 µM [inhibitor, single point]
CC(C)(C)OC(=O)N1CCC(c2nnc(SCc3ccccc3)o2)CC1	inconclusive: -35.7% [inhibitor]	–
Cc1cc(NC(=O)COc2ccccc2)cc(-c2nc3ccccc3o2)c1O	–	inconclusive: 2.24 µM [inhibitor, full curve, poor fit]
CC1(C)CC(=O)C/C(=N/NC(=O)c2cccc(Br)c2)C1	inactive: -12.9%	–
Cc1cccc(-c2noc(-c3ccc(Br)cc3)n2)c1	inactive: 3.72%	–
COc1ccc(S(=O)(=O)NNC(=O)c2ccc(-n3c(C)ccc3C)cc2)cc1	inactive: -14.4%	–
CC(C)c1noc(COc2ccc(C(N)=O)cc2)n1	inactive: 12.5%	–
COc1ccc(F)cc1-c1ncc2c(n1)OCCN(CC1CC1)C2=O	–	active: 35.5 µM
O=C(CC[C@@H]1CNC(=O)[C@@H]2C[C@H](NCc3ccc(CO)o3)CN12)NCc1ccccc1	–	inconclusive: 56.2 µM [inhibitor, single point]
O=C(NCc1ccccc1)O[C@@H]1CO[C@H]2[C@@H]1OC[C@@H]2Nc1nccc(-c2ccc3c(c2)OCO3)n1	–	inconclusive: 39.8 µM [inhibitor, partial curve, poor fit]
CCOc1ccc(-n2c(SCC(=O)Nc3ccc(F)cc3)nc3c([nH]c4ccccc43)c2=O)cc1	–	inconclusive: 31.6 µM [inhibitor, partial curve, poor fit]
O=C(NCC1(COc2cnccn2)C[C@@H](O)[C@@H](O)C1)Nc1cccnc1 (stereo not given in full)	–	inconclusive: 22.4 µM [inhibitor, partial curve, poor fit]
Cc1c(Cl)c(C(=O)Nc2sc3c(c2C#N)CCC3)nn1C	–	inconclusive: 39.8 µM [inhibitor, single point]
CCC(Sc1nc2nccnc2c(=O)n1Cc1ccc(OC)cc1)C(=O)NC1CCCCC1 (stereo not given)	–	inconclusive: 25.1 µM [inhibitor, partial curve, poor fit]
NC1CC(c2cc(NCCc3cn4ccsc4n3)ncn2)C1 (stereo not given)	inactive: -11.6%	–
COc1ccccc1CC(=O)NCC(=O)N1CCN(c2ccccn2)CC1	–	active: 25.1 µM
Cc1cc2nc(SCC(=O)Nc3ccc(Br)cc3F)[nH]c(=O)c2[nH]1	inactive: -6.93%	–
CCOc1ccccc1CNC(=O)c1ccc2c(c1)sc1nc(-c3cccc(OC)c3)cn12	–	inconclusive: 31.6 µM [inhibitor, partial curve, poor fit]
Cc1cccc(C)c1NC(=O)N1CCN(S(C)(=O)=O)CC1	inactive: 24.5%	–
Cc1ccc(-c2nnc3ccc(N4CCCCC4)nn23)nc1	–	active: 31.6 µM
c1ccc(CNc2cc(-c3cc(N4CCCCC4)ncn3)c3cc[nH]c3n2)nc1	–	inconclusive: 17.8 µM [inhibitor, partial curve, poor fit]
O=C(CCC[C@@H]1[C@H]2CCCN3CCC[C@@H](CN1C(=O)C1CCCC1)[C@@H]23)N1CCOCC1	–	inconclusive: 31.6 µM [inhibitor, single point]

SMILES	activity change, negative = inhibition	Potency
CCC(O)CCCCCCCC(O)CC (stereo not given)	inactive: 9.91%	–
O=C1Cc2c(-c3cccc(CO)c3)n[nH]c2CN1CC1CC1	–	inconclusive: 28.2 µM [inhibitor, partial curve, poor fit]
O=C(Nc1ccc(Oc2cnccn2)cc1)c1cc(F)cc(F)c1	inactive: 5.84%	–
CC(C)C(=O)/C(C#N)=C\c1ccc(OCc2ccccc2F)cc1	–	inconclusive: 20 µM [inhibitor, single point]
CCc1cccc(NC(=O)CSc2ncccc2C(=O)Oc2ccccc2Cl)c1	–	inconclusive: 28.2 µM [inhibitor, single point]
N#CC1c2ccccc2C=CN1C(=O)c1ccccc1 (stereo not given)	inactive: 20.9%	–
CNC(=O)c1c[nH]c2ccc(S(=O)(=O)Nc3cccc(Cl)c3C)cc2c1=O	–	inconclusive: 1.58 µM [inhibitor, partial curve, poor fit]
Cc1ccc(N2CCN(C(C(=O)O)c3c[nH]c4cc(NC(=O)C(C)C)ccc34)CC2)c(C)c1 (stereo not given)	inactive: 10.2%	–
CN1CC(=O)N(C2CCCNC2)Cc2c1ncnc2N1CCSCC1 (stereo not given)	–	inconclusive: 50.1 µM [inhibitor, partial curve]
CC(OC(=O)c1nn(C)c(=O)c2ccccc12)C(=O)c1c[nH]c2ccccc12 (stereo not given)	inactive: 10.6%	–
Cc1cc(C)cc(OCc2ccc(C(=O)Nc3ccccc3F)o2)c1	–	inconclusive: 11.2 µM [inhibitor, partial curve, poor fit]
COc1cccc(NC(=O)Nc2ccc3nc(N4CCOCC4)cc(C)c3c2)c1	–	inconclusive: 8.91 µM [inhibitor, partial curve, poor fit]
Cc1noc(-c2cccn3c(CNC(=O)c4cccc(N(C)C)c4)nnc23)n1	–	inconclusive: 25.1 µM [inhibitor, partial curve]
CCN(CC)C(=O)CN(C)c1nc2ccccc2o1	inactive: -1.66%	–
O=[S+]1([O-])NC2(CCCN(Cc3ccc(C(F)(F)F)cc3)C2)COc2ccccc21 (stereo not given)	–	inconclusive: 50.1 µM [inhibitor, partial curve, poor fit]
COc1ccccc1-c1cc2c(ccn2Cc2ccncc2)c(N2CCOCC2)n1	–	inconclusive: 35.5 µM [inhibitor, partial curve, poor fit]
COc1ccc(CCC(=O)N2C[C@@H](Oc3ccccc3)C[C@H]2C(=O)N2CCOCC2)cc1	inactive: 9.49%	–
COc1cc(NC(=O)Cc2c(C(=O)O)c(C)cn2C)cc(OC)c1	–	inconclusive: 15.8 µM [inhibitor, partial curve, poor fit]
CC1(C(=O)NCc2cccnc2)CCc2cnc(Nc3ccccc3)nc21 (stereo not given)	inactive: 4.06% [at 86.2 µM]	–
C[C@@H](N)C(=O)N1CCC(C(=O)Nc2cccc(-c3cccc(Cl)c3)c2)CC1	inactive: -12.7%	–
COc1ccc(-c2ccccc2)cc1N1C(=O)[C@@H]2C[C@H]1CN2C(=O)[C@H]1CCCN1	–	inconclusive: 28.2 µM [inhibitor, partial curve, poor fit]
Cc1ccc2nc(-c3ccc(NC(=O)COc4ccccc4)cc3)sc2c1	–	inconclusive: 22.4 µM [inhibitor, partial curve, poor fit]
Cc1ccc(CSC2=Nc3ccccc3C3=NC(CC(=O)NC4CCCCC4)C(=O)N23)cc1 (stereo not given)	–	inconclusive: 28.2 µM [inhibitor, partial curve, poor fit]
CN(C)c1cccc(C(=O)Nc2ccc(-c3ccccc3)cc2)c1	–	inconclusive: 28.2 µM [inhibitor, partial curve, poor fit]

SMILES	activity change, negative = inhibition	Potency
Cc1ccc(CN2C(=O)[C@@H]3C[C@@H](O)CN3C3(CN(Cc4ccc(C(F)(F)F)cc4)C3)C2=O)o1	–	inconclusive: 35.5 µM [inhibitor, partial curve, poor fit]
Cc1ccc(NC(=O)C(=O)c2cc(C)n(-c3ccc(F)cc3)c2C)cc1C	–	inconclusive: 17.8 µM [inhibitor, partial curve, poor fit]
Cc1ccc(/C=C(\C#N)C(=O)NC2CCCC2)o1	inactive: -16.3%	–
Cc1ccc(C(=O)Cn2c(=O)n(CCc3ccccc3)c(=O)c3sccc32)cc1	–	inconclusive: 39.8 µM [inhibitor, single point]
O=C(c1ccsc1)N1CCN(c2nnc3ccc(C(F)(F)F)cn23)CC1	inactive: -11.3%	–
O=C(N[C@H](c1cccs1)C1CC(O)C1)c1cccc(-n2cccn2)c1 (stereo not given in full)	inactive: 34.4%	–
CCC(CC)NC(=O)c1cc(-c2ccccc2)nc2ccccc12	inactive: -7.45%	–
C=CCNC(=O)c1ccc2cc[nH]c2n1	–	active: 44.7 µM
COc1ccc(-c2cc(C(=O)NC3CC3)c3c(C)nn(-c4ccccc4)c3n2)cc1	–	active: 79.4 µM
COc1ccc(C(C)=O)cc1CN(C)CC(=O)Nc1cccc(F)c1	inactive: -9.64%	–
Cc1cccn2c(=O)c(C(=O)NCCc3ccccc3)c(O)nc12	–	inconclusive: 35.5 µM [inhibitor, partial curve, poor fit]
Fc1ccccc1-c1noc(NCCc2ccc(Cl)cc2)n1	inactive: -14.7%	–
C=C(C)Cn1c(N2CCN(CC(=O)OCC)CC2)nc2c1c(=O)[nH]c(=O)n2C	inactive: 7.51%	–
O=C(CN1CCCc2nc(-c3ccncc3)ncc2C1=O)NCCN1CCOCC1	–	inconclusive: 35.5 µM [inhibitor, single point]
O=C1Nc2ccc(-c3ccccc3)cc2C(=O)N2CCN(C(=O)c3ccccc3)C[C@H]12	–	inconclusive: 31.6 µM [inhibitor, single point]
C=CCOc1cccc(-c2nnc(CCC(=O)NC(C)c3ccccc3)c(=O)[nH]2)c1 (stereo not given)	inactive: -18.4%	–
Cc1c(C(=O)NCCc2ccc(Cl)cc2)sc2nc3n(c(=O)c12)CCCC3	–	inconclusive: 44.7 µM [inhibitor, single point]
CN(C)c1cccc(C(=O)N2CCNc3cnc(Nc4cccc(C(F)(F)F)c4)nc3C2)c1	–	inconclusive: 28.2 µM [inhibitor, partial curve, poor fit]
O=C1Cc2c(-c3ccccc3OCc3ccccc3)n[nH]c2CN1Cc1ccccc1	–	inconclusive: 10 µM [inhibitor, partial curve, poor fit]
Cc1ccccc1CN1c2ccccc2-c2nc(SCC(=O)NCc3ccccc3)ncc2S1(=O)=O	–	inconclusive: 2 µM [inhibitor, full curve, poor fit]
Cc1noc(C)c1C1CCCN1Cc1cn(-c2ccccc2)nn1 (stereo not given)	inactive: -9.5%	–
NC(=O)c1cccnc1N1CCC2(CCCN(Cc3ccccc3F)C2)C1 (stereo not given)	inactive: -24.8%	–
